Results reported in the supplement of paper PMC11417369.
± gives the standard deviation of the averaged measurements. This is one part of the list.

The sequences below were run on PfAP2-G AP2 domain (GST-tagged) (assay: gcPBM binding intensity (ln(normalized median fluorescence intensity)); higher = stronger DNA binding).
Outline: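 Binding of GST-tagged P. falciparum DNA-binding domains, expressed in E. coli and used at about 25 μg on average, was carried out for 1 h in 1× PBS containing 1% milk, 0.2 mg/ml BSA, 0.5% salmon testes DNA and 0.03% Triton X-100. The target was an Agilent 4 × 180k array of primer-extended double-stranded 36-bp intergenic genomic probes plus negative controls, read with Alexa488 anti-GST antibody at 488 nm. Binding intensity is the highest Masliner-normalised natural-log median intensity across replicate spots of either probe orientation.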

Row | Sequence | gcPBM binding intensity (ln)
1 | ATTACATTTTTAATGCGTACTAAAAATGTATATAAG [XGTACX_site6384] | 11.3 ± 0.95
2 | AATATAAAAATGTTTACACACACACCCAAATATATT [CACACA_site2511] | 10.21 ± 0.099
3 | AGAATTACTTAAAAAAGTACATAAAATTATTTAAAA [XGTACX_site2205] | 11.4 ± 0.86
4 | AATATGAAATATATTACACACATTTATATGTTGAAA [CACACA_site1427] | 9.69 ± 0.16
5 | TTATTATCTCTTGTCATTATTATATACTAAGAAGTA [CACACA_negctrl_site410] | 9.95 ± 0.071
6 | TATTAATAAATATGTTTACACACGAAAATACATTTT [CACACA_site1012] | 9.9 ± 0.13
7 | ATATTAAGAATGTATACATGCATATATATATAGTAC [TGCATGCA_site219] | 10.5 ± 0.24
8 | ATTTTAATAAACACTTACATGTTTTCCAAATTGTAT [CACACA_negctrl_site1807] | 9.89 ± 0.028
9 | TTCGTTAAAAATAAATGTACATAAATAAACCTTATT [XGTACX_site621] | 11.2 ± 0.75
10 | GAAAGAGAGATATATACACACATATTTATATTTTTA [CACACA_site7057] | 9.86 ± 0.17
11 | AAAGATTTAGAAAATGAACACACGAGCACCCACCGA [CACACA_site1017] | 10.7 ± 0.35
12 | CAGATAAGGTGAAGCTGTACAAAAATGTTTTATAAC [XGTACX_site6783] | 10.8 ± 0.31
13 | AAAAGTCTCTTTTTAGTGCACATTTTATTTAAATAT | 10.3 ± 0.24
14 | TAATTAATTTATGTAACACACATTGTTGATTCAATA [CACACA_site1098] | 10 ± 0.16
15 | TTATACTGTATAGTCGCACACAAAAATATAAAATAT [CACACA_site3869] | 10.4 ± 0.3
16 | TCTAATTATCACATTGCACACACATTTCCTTTTACA [CACACA_site9140] | 10.2 ± 0.18
17 | TATTTAAAAATAAAATGTACATATTATTATGCATTA [XGTACX_site1303] | 11.2 ± 0.7
18 | TGATTCTAACTTATGGTGCAACATTATGGACACCGT | 11 ± 0.72
19 | TTACATATTTATGATTGTACACATTTATAAACAATA [XGTACX_site2190] | 11.4 ± 0.89
20 | TTAATATTGTTATAGCGTACAAATAAACATATTAAA [XGTACX_site8153] | 11.4 ± 0.92
21 | ATTATGTACTATTATACACACGTTTAATTGTAAATT [CACACA_site4278] | 11.2 ± 0.81
22 | AATGTTAAGGAGGGGAGTACATAAAATTCTCTCTCC [XGTACX_site1990] | 11.5 ± 0.94
23 | AAAAGCTATAAAAATCGGTAATTTATAACAGGAATT [CACACA_negctrl_site469] | 9.59 ± 0.4

Row | Sequence | gcPBM binding intensity (ln)
24 | TGGTAACAGCATAGAAAATGGACAAACGAAATATAA [GTGCAC_negctrl_site537] | 10.6 ± 0.26
25 | TAAATAAACAAATTAACACACAGAATTTTTTTTTTC [CACACA_site1674] | 9.77 ± 0.11
26 | ATAATAATAAAGTGAACACACACATATAATATATAT [CACACA_site9378] | 9.795 ± 0.064
27 | ATTATACACGCGCGCACACACAACAAAAAAAAAAAA [CACACA_site7630] | 10.8 ± 0.86
28 | TCCTTGCATTTTAAAACACACAAAAATTAATTGTTA [CACACA_site7152] | 10 ± 0.17
29 | ATATTGTAAGTAAAATGTAATAAATATAATAAAATA [CACACA_negctrl_site697] | 9.96 ± 0.12
30 | TTAGTATATACATTTGCACACATTATTTTTTAACAT [CACACA_site2618] | 10.16 ± 0.057
31 | AAAAGGAAAATACTAGCACACAATATATAATAAACA [CACACA_site285] | 10
32 | ATATATATTATTATATGTACATATAAATATATTAAT [XGTACX_site5270] | 11.2 ± 0.67
33 | TTTCTAATTATTTCCCTTCAAATATATTAATATCGT [CACACA_negctrl_site429] | 9.89 ± 0.14
34 | TAAAAATGTGGACACACACACATATATATATTTAAT [CACACA_site4941] | 11.4 ± 0.88
35 | TTCATATATTATTATGCATGTTCATAAATTATCTAA [TGCATGCA_site896] | 9.775 ± 0.035
36 | TTCATATAATTATATACATGCATAAATTCTAAGTAA [TGCATGCA_site622] | 9.62 ± 0.21
37 | ATCAAAAGAAAACACACACACATACATATATATATA [CACACA_site3795] | 9.95 ± 0.22
38 | ATTTGTGTATATTAGAGTACATAAAATTAGAGGAAC [XGTACX_site1654] | 11.6 ± 0.92
39 | CATTAATGACATGATTGTACATAAGCTTTTTTACAT [XGTACX_site1888] | 10.7 ± 0.44
40 | ACCCATTCAAATTTCGCACACACATACAAAAAAAAA [CACACA_site3094] | 10.4 ± 0.43
41 | ATTTTATAAACAAATGAACACACAAACATATATATA [CACACA_site9036] | 10.1 ± 0.13
42 | TACATACATAAACACACACACACATATATATATATA [CACACA_site8953] | 10.2 ± 0.4
43 | ATTAACACTGAAAAATGTACATATATAAATATAAGC [XGTACX_site8222] | 11 ± 0.61
44 | AATATTAAAAACAAAACACACAAAAAAAAATAAACT [CACACA_site6470] | 10.1 ± 0.014
45 | AACGATATCTGTACTACACACATTATGTCATCCTAT [CACACA_site5374] | 11.8 ± 1.1
46 | ATGTAAATTAAACATGGTACACATTATACAAAATTA [XGTACX_site5675] | 11 ± 0.47

Row | Sequence | gcPBM binding intensity (ln)
47 | AATATAGAACAATGTTGTACATATAATAATCTTATA [XGTACX_site4671] | 11.3 ± 0.88
48 | TAAAATAATACAAAATGTACAAAATTTACAAAATGT [XGTACX_site3541] | 10.5 ± 0.28
49 | ATTGCTTTTCTTTTTGCACACTTATGCATATATATA [CACACA_site2584] | 10.2 ± 0.13
50 | TAATAATAAAAATAAACACACATATAGATGTATATA [CACACA_site7360] | 9.82 ± 0.19
51 | ATTTTGTTCGAAAGGTGTACATATACAAAAATTATG [XGTACX_site957] | 11.7 ± 1
52 | GCATGTATAATGGTAGTGCATATAATAATATAATAA [GTGCAC_site9548] | 10.4 ± 0.26
53 | AGCACACCCACAAAAACACACACAAAGGTGTTCTTA [CACACA_site8355] | 10 ± 0.16
54 | TCATTATTATTCCTCACACATATATATATATATATT [CACACA_site4375] | 10.2 ± 0.13
55 | CACTTTTCATATATGACACACAAAAAATTAATAAAA [CACACA_site3639] | 10.5 ± 0.21
56 | TATTATCTCTTATGAACACACATTTTTATTTTCAAA [CACACA_site3353] | 10.1 ± 0.11
57 | ATATCGTATATGAGTGGTACTAATATGTAAAAAAAA [XGTACX_site7830] | 11 ± 0.63
58 | AAAGTTATAATACGTACACACCTTATCTTTTTGGCT [CACACA_site6267] | 11.6 ± 1.1
59 | TTTATGGGTATGTTTACACACATAAAAAAATATATG [CACACA_site5646] | 10.2 ± 0.4
60 | ATATATATGAAAATATGTACATATATATATATATAA [XGTACX_site7550] | 11.1 ± 0.63
61 | ACTGAAAAAAGAAATACACACATTCTGGATCATATA [CACACA_site3860] | 9.96 ± 0.085
62 | TTATAAAATAATTAATGTACGTTTATGTGTATCGAA [XGTACX_site6117] | 11.4 ± 1
63 | ATATAAGTATTTTGAATGCACTTTCTTTTTTTTTTT | 9.87 ± 0.057
64 | TGTGTAAACATATTCACACACATAAATTCGCATATA [CACACA_site6961] | 9.715 ± 0.064
65 | TATATAAAAAATAAATGTACACATGTAATAATAAAA [XGTACX_site2640] | 11.3 ± 0.71
66 | TATAAATATACACCCACACACATATATATATATATA [CACACA_site3745] | 10.1 ± 0.25
67 | TATATATATTTATGCTGTACCAAATAAGAATAGAAA [XGTACX_site7731] | 10.7 ± 0.59
68 | ATATGAACAAAATAAATCTCTTCAAAAATAATGTTC [GTGCAC_negctrl_site2] | 9.61 ± 0.19
69 | TAAATGATTGCATAATGTACATATAATTTTTTTTTT [XGTACX_site1988] | 10.9 ± 0.45

Row | Sequence | gcPBM binding intensity (ln)
70 | AAAAAAAAAAATAAAGAAATCAAAATTGATGAATAA [GTGCAC_negctrl_site692] | 9.44 ± 0.25
71 | AGCACAAGCACAAGCACACATTTATATATAAATACA [CACACA_site4642] | 10.1 ± 0.27
72 | ACAAAATATACAAAATGTACAAAATTTACAAAATAT [XGTACX_site6466] | 10.6 ± 0.24
73 | AGACAGCGCACAAACACACAAACACCCACCCACATA [CACACA_site451] | 10.3 ± 0.12
74 | TACCCATGCATTTTTGCACACACATATATATATAAA [CACACA_site1429] | 10.1 ± 0.21
75 | TACTTACATATAATAACACACAAGAAAAAAATAAAA [CACACA_site1033] | 10.1 ± 0.27
76 | ATTTTTGTACACTTCTTTTTTTTTTTTCTTTTATGT [CACACA_negctrl_site1323] | 11.4 ± 0.68
77 | TAATGTTGAGAATTTTGTACATATAGATCAATTTAT [XGTACX_site5426] | 10.8 ± 0.51
78 | ATTGTTATTTATTGTGTGCGCATTAATACATACATA [GTGCAC_site9982] | 10.6 ± 0.36
79 | TAACTTTGAAAAGATGGTACACAATAATATATATAT [XGTACX_site8667] | 11.1 ± 0.48
80 | ATTTATTATGAACATACACACAAAAAAAAAAAGTAT [CACACA_site2054] | 10.3 ± 0.22
81 | GTATATTTTAATATGACACACATATTATATATATAT [CACACA_site2483] | 10.1 ± 0.35
82 | TGTATCCATATTTGTTCACACACACCCATATTTATA [CACACA_site9190] | 10.2 ± 0.16
83 | ATAATATGTATGGTCACACAGACAAGGAAAGAATAA [CACACA_site5164] | 10.9 ± 0.57
84 | AATCAATTAATATTAGCATAAAATTTTATTATTTTG [XGTACX_negctrl_site479] | 9.69 ± 0.17
85 | TGACATAAAAAATATACACACTATAATATATATACT [CACACA_site4898] | 9.89 ± 0.071
86 | TCGTGTGAAAATATTACACACATTTACTATAGTATC [CACACA_site7590] | 9.93 ± 0.057
87 | ATAAAAATTGAAACATGTACACATATTCATTTTATA [XGTACX_site7968] | 11.4 ± 0.88
88 | ATATATTTTTACCATACACACATATAATAAATATAT [CACACA_site3722] | 10.3 ± 0.13
89 | AAAAAATAATAATAATGTACAAATAAAATAAAAACA [XGTACX_site6568] | 10.8 ± 0.37
